# Experimental data reported in the supplement of paper PMC8728848.
# This is one part of the list.
# What was measured:
# Test in all cases: glycan array binding signal (z-score within array); higher = stronger binding
# Settings in all cases: glycan notation: IUPAC condensed, linker removed
# [1] = biological target: GlcNAc(b1-3)Gal(b1-4)Glc
# Outline: (§1)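 Glycan array binding is given as a within-array Z-score, which can be read as non-binding when negative. The arrays, 3228 of them, came from the Consortium for Functional Glycomics database and were retained only where the protein sequence was available. Z-scores were averaged across arrays of the same protein sequence at different concentrations or buffers and across linkers.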
# [2] = biological target: GlcNAc(b1-3)Gal(b1-4)GlcNAc
# Outline: as §1
# [3] = biological target: GlcNAc(b1-3)Gal(b1-4)GlcNAc(b1-2)Man(a1-3)[GlcNAc(b1-3)Gal(b1-4)GlcNAc(b1-2)Man(a1-6)]Man(b1-4)GlcNAc(b1-4)GlcNAc
# Outline: as §1
# [4] = biological target: GlcNAc(b1-3)Gal(b1-4)GlcNAc(b1-2)Man(a1-3)[GlcNAc(b1-3)Gal(b1-4)GlcNAc(b1-2)Man(a1-6)]Man(b1-4)GlcNAc(b1-4)[Fuc(a1-6)]GlcNAc
# Outline: as §1
# [5] = biological target: GlcNAc(b1-3)Gal(b1-4)GlcNAc(b1-2)[GlcNAc(b1-3)Gal(b1-4)GlcNAc(b1-6)]Man(a1-6)[GlcNAc(b1-3)Gal(b1-4)GlcNAc(b1-2)Man(a1-3)]Man(b1-4)GlcNAc(b1-4)GlcNAc
# Outline: as §1
# [6] = biological target: GlcNAc(b1-3)Gal(b1-4)GlcNAc(b1-3)Gal(b1-4)GlcNAc
# Outline: as §1
# [7] = biological target: GlcNAc(b1-3)Gal(b1-4)GlcNAc(b1-3)Gal(b1-4)GlcNAc(b1-2)Man(a1-3)[GlcNAc(b1-3)Gal(b1-4)GlcNAc(b1-3)Gal(b1-4)GlcNAc(b1-2)Man(a1-6)]Man(b1-4)GlcNAc(b1-4)GlcNAc
# Outline: as §1
# [8] = biological target: GlcNAc(b1-3)Gal(b1-4)GlcNAc(b1-3)Gal(b1-4)GlcNAc(b1-2)Man(a1-3)[GlcNAc(b1-3)Gal(b1-4)GlcNAc(b1-3)Gal(b1-4)GlcNAc(b1-2)Man(a1-6)]Man(b1-4)GlcNAc(b1-4)[Fuc(a1-6)]GlcNAc
# Outline: as §1
# [9] = biological target: GlcNAc(b1-3)Gal(b1-4)GlcNAc(b1-3)Gal(b1-4)GlcNAc(b1-2)[GlcNAc(b1-3)Gal(b1-4)GlcNAc(b1-3)Gal(b1-4)GlcNAc(b1-6)]Man(a1-6)[GlcNAc(b1-3)Gal(b1-4)GlcNAc(b1-3)Gal(b1-4)GlcNAc(b1-2)Man(a1-3)]Man(b1-4)GlcNAc(b1-4)[Fuc(a1-6)]GlcNAc
# Outline: as §1
# [10] = biological target: GlcNAc(b1-3)Gal(b1-4)GlcNAc(b1-3)Gal(b1-4)GlcNAc(b1-3)Gal(b1-4)GlcNAc(b1-2)Man(a1-3)[GlcNAc(b1-3)Gal(b1-4)GlcNAc(b1-3)Gal(b1-4)GlcNAc(b1-3)Gal(b1-4)GlcNAc(b1-2)Man(a1-6)]Man(b1-4)GlcNAc(b1-4)GlcNAc
# Outline: as §1
# [11] = biological target: GlcNAc(b1-3)Gal(b1-4)GlcNAc(b1-3)Gal(b1-4)GlcNAc(b1-3)Gal(b1-4)GlcNAc(b1-2)Man(a1-3)[GlcNAc(b1-3)Gal(b1-4)GlcNAc(b1-3)Gal(b1-4)GlcNAc(b1-3)Gal(b1-4)GlcNAc(b1-2)Man(a1-6)]Man(b1-4)GlcNAc(b1-4)[Fuc(a1-6)]GlcNAc
# Outline: as §1
# [12] = biological target: GlcNAc(b1-3)Gal(b1-4)GlcNAc(b1-3)Gal(b1-4)GlcNAc(b1-3)Gal(b1-4)GlcNAc(b1-2)[GlcNAc(b1-3)Gal(b1-4)GlcNAc(b1-3)Gal(b1-4)GlcNAc(b1-3)Gal(b1-4)GlcNAc(b1-6)]Man(a1-6)[GlcNAc(b1-3)Gal(b1-4)GlcNAc(b1-3)Gal(b1-4)GlcNAc(b1-3)Gal(b1-4)GlcNAc(b1-2)Man(a1-3)]Man(b1-4)GlcNAc(b1-4)[Fuc(a1-6)]GlcNAc
# Outline: as §1
# [13] = biological target: GlcNAc(b1-3)Gal(b1-4)GlcNAc(b1-3)Gal(b1-4)GlcNAc(b1-3)Gal(b1-4)GlcNAc(b1-3)Gal(b1-4)GlcNAc(b1-2)Man(a1-3)[GlcNAc(b1-3)Gal(b1-4)GlcNAc(b1-3)Gal(b1-4)GlcNAc(b1-3)Gal(b1-4)GlcNAc(b1-3)Gal(b1-4)GlcNAc(b1-2)Man(a1-6)]Man(b1-4)GlcNAc(b1-4)GlcNAc
# Outline: as §1
# [14] = biological target: GlcNAc(b1-3)Gal(b1-4)GlcNAc(b1-3)Gal(b1-4)GlcNAc(b1-3)Gal(b1-4)GlcNAc(b1-3)Gal(b1-4)GlcNAc(b1-2)Man(a1-3)[GlcNAc(b1-3)Gal(b1-4)GlcNAc(b1-3)Gal(b1-4)GlcNAc(b1-3)Gal(b1-4)GlcNAc(b1-3)Gal(b1-4)GlcNAc(b1-2)Man(a1-6)]Man(b1-4)GlcNAc(b1-4)[Fuc(a1-6)]GlcNAc
# Outline: as §1
# [15] = biological target: GlcNAc(b1-3)Gal(b1-4)GlcNAc(b1-3)Gal(b1-4)GlcNAc(b1-3)Gal(b1-4)GlcNAc(b1-3)Gal(b1-4)GlcNAc(b1-2)[GlcNAc(b1-3)Gal(b1-4)GlcNAc(b1-3)Gal(b1-4)GlcNAc(b1-3)Gal(b1-4)GlcNAc(b1-3)Gal(b1-4)GlcNAc(b1-6)]Man(a1-6)[GlcNAc(b1-3)Gal(b1-4)GlcNAc(b1-3)Gal(b1-4)GlcNAc(b1-3)Gal(b1-4)GlcNAc(b1-3)Gal(b1-4)GlcNAc(b1-2)Man(a1-3)]Man(b1-4)GlcNAc(b1-4)[Fuc(a1-6)]GlcNAc
# Outline: as §1
# [16] = biological target: GlcNAc(b1-3)Gal(b1-4)GlcNAc(b1-3)Gal(b1-4)GlcNAc(b1-3)GalNAc
# Outline: as §1
# [17] = biological target: GlcNAc(b1-3)Gal(b1-4)GlcNAc(b1-3)GalNAc
# Outline: as §1
# [18] = biological target: GlcNAc(b1-3)Gal(b1-4)GlcNAc(b1-3)[GlcNAc(b1-3)Gal(b1-4)GlcNAc(b1-3)]GalNAc
# Outline: as §1
# [19] = biological target: GlcNAc(b1-3)Gal(b1-4)GlcNAc(b1-6)[Gal(b1-3)]GalNAc
# Outline: as §1
# [20] = biological target: GlcNAc(b1-3)Gal(b1-4)GlcNAc(b1-6)[GlcNAc(b1-3)Gal(b1-3)]GalNAc
# Outline: as §1
# [21] = biological target: GlcNAc(b1-3)Gal(b1-4)GlcNAc(b1-6)[GlcNAc(b1-3)]Gal(b1-4)GlcNAc
# Outline: as §1
# [22] = biological target: GlcNAc(b1-3)GalNAc
# Outline: as §1
# [23] = biological target: GlcNAc(b1-3)Man
# Outline: as §1
# [24] = biological target: GlcNAc(b1-3)[GlcNAc(b1-4)][GlcNAc(b1-6)]GlcNAc
# Outline: as §1
# [25] = biological target: GlcNAc(b1-3)[GlcNAc(b1-6)]Gal(b1-4)GlcNAc
# Outline: as §1
# [26] = biological target: GlcNAc(b1-3)[GlcNAc(b1-6)]GalNAc
# Outline: as §1
# [27] = biological target: GlcNAc(b1-4)Gal(b1-4)GlcNAc
# Outline: as §1
# [28] = biological target: GlcNAc(b1-4)GlcNAc
# Outline: as §1
# [29] = biological target: GlcNAc(b1-4)GlcNAc(b1-4)GlcNAc
# Outline: as §1
# [30] = biological target: GlcNAc(b1-4)GlcNAc(b1-4)GlcNAc(b1-4)GlcNAc(b1-4)GlcNAc
# Outline: as §1
# [31] = biological target: GlcNAc(b1-4)GlcNAc(b1-4)GlcNAc(b1-4)GlcNAc(b1-4)GlcNAc(b1-4)GlcNAc
# Outline: as §1
# [32] = biological target: GlcNAc(b1-4)[GlcNAc(b1-6)]GalNAc
# Outline: as §1
# [33] = biological target: GlcNAc(b1-6)Gal(b1-4)GlcNAc
# Outline: as §1
# [34] = biological target: GlcNAc(b1-6)GalNAc
# Outline: as §1
# [35] = biological target: GlcNAc6S(b1-3)Gal(b1-4)GlcNAc
# Outline: as §1
# [36] = biological target: Kdn(a2-3)Gal(b1-3)GalNAc
# Outline: as §1
# [37] = biological target: Kdn(a2-3)Gal(b1-3)GlcNAc
# Outline: as §1
binder,measurement,setting,value
SAOUHSC 00176 (Staphylococcus aureus) (protein) MSKILKCITLAVVMLLIVTACGPNRSKEDIDKALNKDNSKDKPNQLTMWVDGDKQMAFYKKITDQYTKKTGIKVKLVNIGQNDQLENISLDAPAGKGPDIFFLAHDNTGSAYLQGLAAEIKLSKDELKGFNKQALKAMNYDNKQLALPAIVETTALFYNKKLVKNAPQTLEEVEANAAKLTDSKKKQYGMLFDAKNFYFNYPFLFGNDDYIFKKNGSEYDIHQLGLNSKHVVKNAERLQKWYDKGYLPKAATHDVMIGLFKEGKVGQFVTGPWNINEYQETFGKDLGVTTLPTDGGKPMKPFLGVRGWYLSEYSKHKYWAKDLMLYITSKDTLQKYTDEMSEITGRVDVKSSNPNLKVFEKQARHAEPMPNIPEMRQVWEPMGNASIFISNGKNPKQALDEATNDITQNIKILHPSQNDKKGD,glycan array binding signal (z-score),[1],-0.067
same,glycan array binding signal (z-score),[2],-0.057
same,glycan array binding signal (z-score),[3],-0.101
same,glycan array binding signal (z-score),[4],-0.091
same,glycan array binding signal (z-score),[5],-0.044
same,glycan array binding signal (z-score),[6],-0.091
same,glycan array binding signal (z-score),[7],-0.03
same,glycan array binding signal (z-score),[8],0.034
same,glycan array binding signal (z-score),[9],-0.059
same,glycan array binding signal (z-score),[10],-0.088
same,glycan array binding signal (z-score),[11],-0.04
same,glycan array binding signal (z-score),[12],-0.05
same,glycan array binding signal (z-score),[13],-0.032
same,glycan array binding signal (z-score),[14],-0.044
same,glycan array binding signal (z-score),[15],-0.055
same,glycan array binding signal (z-score),[16],-0.153
same,glycan array binding signal (z-score),[17],-0.042
same,glycan array binding signal (z-score),[18],-0.02
same,glycan array binding signal (z-score),[19],-0.023
same,glycan array binding signal (z-score),[20],-0.075
same,glycan array binding signal (z-score),[21],-0.141
same,glycan array binding signal (z-score),[22],-0.105
same,glycan array binding signal (z-score),[23],-0.021
same,glycan array binding signal (z-score),[24],-0.137
same,glycan array binding signal (z-score),[25],-0.01
same,glycan array binding signal (z-score),[26],-0.149
same,glycan array binding signal (z-score),[27],-0.028
same,glycan array binding signal (z-score),[28],-0.082
same,glycan array binding signal (z-score),[29],-0.123
same,glycan array binding signal (z-score),[30],-0.044
same,glycan array binding signal (z-score),[31],-0.028
same,glycan array binding signal (z-score),[32],-0.159
same,glycan array binding signal (z-score),[33],-0.124
same,glycan array binding signal (z-score),[34],-0.128
same,glycan array binding signal (z-score),[35],-0.01
same,glycan array binding signal (z-score),[36],-0.129
same,glycan array binding signal (z-score),[37],-0.106
